Test results as given in the supplement of paper PMC7125110.
± gives the standard error. Variants at the background level are over-represented here.

B1: glmS ribozyme (parent)
chain: AUAAAAGCGCCAGAACUACAGAAAUGUAGUUGACGAGGAGGAGGUUUAUCGAAUUUUCGGCGGAUGCCUCCAAA

Key:
Settings in all cases: with glucosamine-6-phosphate
glucosamine-6-phosphate [1] = variants of: B1; test: self-cleavage kobs at 640 uM GlcN6P; higher = faster cleavage; RNA array
How it was run: (§1)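 Sequenced MiSeq chips were the platform: E. coli RNA polymerase transcribed barcoded ribozyme variants on them in situ, and a hybridised Cy3 probe tracked these at 37 °C. After glucosamine-6-phosphate (40 μM to 10 mM) in HEPES/KCl/Mg(OAc)2 buffer was flowed in, tiles were imaged over ~14 h. Signals normalised to baseline and to non-cleaving reference variants were reduced to per-tile medians and fit to one- or two-exponential decays to obtain kobs. kcat and KM were derived through weighted Michaelis–Menten fits across concentrations.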

glucosamine-6-phosphate [2] = variants of: B1; test: self-cleavage kobs at 160 uM GlcN6P; higher = faster cleavage; RNA array
How it was run: as §1

glucosamine-6-phosphate [3] = variants of: B1; test: self-cleavage kobs at 2500 uM GlcN6P; higher = faster cleavage; RNA array
How it was run: as §1

glucosamine-6-phosphate [4] = variants of: B1; test: self-cleavage kobs at 10000 uM GlcN6P; higher = faster cleavage; RNA array
How it was run: as §1

Variant | self-cleavage kobs at 640 uM GlcN6P (glucosamine-6-phosphate [1]) [s⁻¹] | self-cleavage kobs at 160 uM GlcN6P (glucosamine-6-phosphate [2]) [s⁻¹] | self-cleavage kobs at 2500 uM GlcN6P (glucosamine-6-phosphate [3]) [s⁻¹] | self-cleavage kobs at 10000 uM GlcN6P (glucosamine-6-phosphate [4]) [s⁻¹]
AUAAAAGCGCCAGAACUACAGAAAUGUAGUUGACGAGGAGUAGGUUCAUCGAAUUUGCGGCGGAUGCCGCCAAA | < 1e-05 |  |  | 
AUAAAAGCGCCAGAACUACAGAAAUGUAGUUGACGAGGAGGCGGUUUGUCGAAUAUUCGGCGGAUGCCUCCAAA | < 1e-05 | < 1e-05 |  | 
AUAAAAGCGCCAGAACUACAGAAAUGUAGUUGACGAGGAGUAGGUUGAUGGAAUUUUCGGCGGAUGCCUCCAAA | < 1e-05 |  |  | 
AUAAAAGCGCCAGAACUACAGAAAUGUAGUUGACGAGGAGGCGGUUCAUCGAAUUUUCGGCGGAUGCCUGCAAA | < 1e-05 |  |  | 
AUAAAAGCGCCAGAACUACAGAAAUGUAGUUGACGAGGAGGCGGUUUAUCGAAUUUUCGGCGGAUGCCUGAAAA | < 1e-05 |  | < 1e-05 | 
AUAAAAGCGCCAGAACUACAGAAAUGUAGUUGACGAGGAGGCGGUUUAUCGAAUUUUCGGCGGAUGCCUUUAAA | < 1e-05 | < 1e-05 |  | 
AUAAAAGCGCCAGAACUACAGAAAUGUAGUUGACGAGGAGGGGGUUUUUCGAAUUUUCGGAGGAUGGCUCCAAA | < 1e-05 |  | < 1e-05 | 
AUAAAAGCGCCAGAACUACAGAAAUGUAGUUGACGAGGAGUAGGUGUCCCGAAUUUUCGGCGGAUGCCUCCAAA | < 1e-05 |  |  | 
AUAAAAGCGCCAGAACUACAGAAAUGUAGUUGACGAGGAGGCGGUCUAUCGAAUUUUCGGCGGAUGCCUCCAAA | < 1e-05 | < 1e-05 |  | 
AUAAAAGCGCCAGAACUACAGAAAUGUAGUUGACGAGGAGUAGGUUUAUCGAAUUAUCGACGGAUGCCUCCAAA | < 1e-05 | < 1e-05 |  | 
AUAAAAGCGCCAGAACUACAGAAAUGUAGUUGACGAGGAGGCGGUUUAUCGAACUUUCGGCGGGUGCAUCCAAA | < 1e-05 | < 1e-05 | < 1e-05 | < 1e-05
AUAAAAGCGCCAGAACUACAGAAAUGUAGUUGACGAGGAGGCGGUUUAUCGAAUUCUCGUCGGAUGCCUCCAAA | < 1e-05 |  |  | 
AUAAAAGCGCCAGAACUACAGAAAUGUAGUUGACGAGGAGGCGGUUUGUCGAAGUUUCGGCGGAUGCCUCCAAA | < 1e-05 |  |  | 
AUAAAAGCGCCAGAACUACAGAAAUGUAGUUGACGAGGAGUAGGUUUAUCGAAUUAUCGGCGGAUGCCUACAAA | 0.0096 ± 0.0018 | 0.00226 ± 0.00043 | 0.033 ± 0.0088 | 0.0192 ± 0.0059
AUAAAAGCGCCAGAACUACAGAAAUGUAGUUGACGAGGAGGCGGUUUAUCGACUUUUCGACGGAUGCCUCCAAA | < 1e-05 |  | < 1e-05 | 
AUAAAAGCGCCAGAACUACAGAAAUGUAGUUGACGAGGAGGCGGUUUUUCGAAUUUUCGGCGGAUGCCUCCAAA | < 1e-05 |  |  | < 1e-05
AUAAAAGCGCCAGAACUACAGAAAUGUAGUUGACGAGGAGGCUGUUUAUCGAAUUUUCGGCGGAUGCCUCCAAA | < 1e-05 | < 1e-05 | < 1e-05 | 
AUAAAAGCGCCAGAACUACAGAAAUGUAGUUGACGAGGAGUAGGUUGAUCGAAUUUUCUGCGGACGCCUCCAAA | < 1e-05 | < 1e-05 | < 1e-05 | 
AUAAAAGCGCCAGAACUACAGAAAUGUAGUUGACGAGGAGUAGGUUUAGCGAAUUUUCGGCGGUUGCCUCCAAA | < 1e-05 |  | < 1e-05 | 
